From PubChem BioAssay AID1508624 (National Center for Advancing Translational Sciences (NCATS), 2021)
In all, about 48,000 compounds went through this assay and about 120 (0.25%) were called active. Not shown: some 4% with an inconclusive outcome. Calls come from the whole dose curve; as a rule, active = well fitted activation curve with a large enough effect; inconclusive = small, poorly fitted or top-dose-only effect, or another doubt; inactive = no such curve, though single readings can be large or run the other way. Some of the results follow.

Assay: Primary qHTS for Identification of Small Molecule Activators of Huntingtin-Antisense Promoter Activity; note: nearly all actives have a fitted effect of over 55% in size
Settings: HEK293 HTT-AS promoter firefly luciferase reporter (activity 0% = vehicle and -100% = no light), 24 h; series mostly up to 57.5 µM; activity change, positive = activation: at the top concentration
Summary of the method: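 Firefly luciferase signal from promoter-reporter HEK293 cells was scaled between vehicle (0%) and zero RLU (-100%). Compounds were tested at final concentrations of up to 57.5 uM over 24 h at 37 degrees C. PTC124 at 50 uM final served as control inhibitor.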

Activity change, positive = activation, inactive:
Cc1cccc2sc(N(Cc3cccnc3)C(=O)CCS(=O)(=O)c3ccccc3)nc12 10.6%, CCOC(=O)c1c(NC(=O)c2cc(=O)c3cc(Cl)ccc3o2)sc(C)c1C -2.51%, COc1cc(C(=O)Nc2ccccc2OCc2cc(=O)n3c(C)csc3n2)cc(OC)c1OC -3.06%, Cc1ccc(C)c(N2CCN(C(=O)CN3CCSc4ccccc43)CC2)c1 -29.6%, Cc1cccc(-c2nc(SCc3cc(=O)c4cccc(F)c4[nH]3)n[nH]2)c1 -40.8%, CCN1CCN(C(c2ccc(C)cc2)c2sc3nc(-c4ccco4)nn3c2O)CC1 (centres undefined) -0.917%, CCOc1ccc(CCNC(=O)CSc2nnnn2-c2ccccc2Cl)cc1OCC -25.2%, COCCn1c(=N)c(C(=O)NCC2CCCO2)cc2c(=O)n3ccccc3nc21 (centres undefined) -0.92%, O=C(NCCS(=O)(=O)N1CCN(c2ccccc2F)CC1)c1ccccc1C(F)(F)F -22%, COc1cccc(CNC(=O)Cn2c(=O)cc(C(F)(F)F)c3c(C)nn(C)c32)c1OC -6.9%, CCOC(=O)c1ccc2c(c1)sc1nc(-c3ccc(OCC)cc3)cn12 -7.13%, Fc1ccc(F)c(Nc2c3c(nc4ccc(Cl)cc24)CCC3)c1 -51.8%, CCN(CC)CCCNC(=O)c1c2c(nc3ccccc13)C(=O)N(C1CCCCC1)C2 3.45%, Cc1ccccc1OCC(=O)NCC(c1ccc(Cl)cc1)N1CCOCC1 (centres undefined) -30.1%, O=C(Nc1cccc2cccnc12)c1cccc2c(Br)cccc12 0.385%, O=C1c2oc3ccccc3c(=O)c2C(c2ccccc2F)N1Cc1ccc2c(c1)OCO2 (centres undefined) -20.3%, CCN(CC)CCNC(=O)c1sc2nc(C)cc(C)c2c1-n1cccc1 -10.7%, COc1ccc(-n2c(Cc3ccccc3)nnc2SCc2nc(-c3ccccc3C)no2)cc1 -36.7%, Cc1ccc2onc(CNC(=O)N(C)Cc3ccccc3)c2c1 -0.563%, COc1ccc(NC(=O)Cn2ccn(Cc3ccccc3)c(=O)c2=O)cc1Cl -26.9%, CCc1ccccc1NC(=O)Cn1c(C(=O)OC)cc2oc(C)cc21 10.5%, CCOC(=O)c1ccc(NC(=O)c2cccc3c(=O)c4c([nH]c23)CCCC4)cc1 -8.48%, O=C1c2[nH]nc(-c3ccccc3O)c2C(c2cccc(Br)c2)N1Cc1ccncc1 (centres undefined) -24.2%, CN(C(=O)CSc1cn(CC(=O)N2CCCC2)c2ccccc12)c1ccccc1 -4.65%, COc1cccc(NC(=O)CSc2cc(C)[nH]c(=O)n2)c1 -2.9%, CCN(CC)c1nn2c(=O)c(C(=O)NCc3cccc(OC)c3OC)cnc2s1 -6.38%, CCCNC(C)(C)COC(=O)c1ccccc1 -10.1%, COCCCNC(=O)c1sc2nc(C)c(C(=O)Nc3ccc(Cl)cc3)c(-c3ccc(Br)cc3)c2c1N -3.47%, CC1N=C2c3ccccc3N=C(SCC(=O)NCc3ccc(Cl)cc3)N2C1=O (centres undefined) 2.3%, COc1cccc(-c2n[nH]c3c2C(c2cccc(O)c2)N(C)C3=O)c1 (centres undefined) -8.62%, CCS(=O)(=O)N1CC(=O)N(c2cccc(C)c2C)C(C)(C(=O)NC2CCCCCC2)C1 (centres undefined) -4.5%, COc1ccc(CNC(=O)c2cnn(-c3ccc(OC)cc3)c2C2CCN(C(=O)OC(C)(C)C)CC2)cc1 -33%, Cc1nc(SCC(=O)Nc2ccccc2Cl)cc(-c2ccccc2)n1 -12.1%, Cc1c2cnn(-c3ccccc3)c(=O)c2c(C)n1CC(=O)N1CCN(c2cccc(Cl)c2)CC1 -13%, CCOc1ccccc1NC(=O)c1c(NC(=O)Cc2ccccc2)sc2c1CCCC2 -8.67%, Cn1cc(C(=O)N2CCN(c3cccc(Cl)c3)CC2)c(=O)c2cc(S(=O)(=O)N3CCCC3)ccc21 -2.53%, COc1ccc(C)cc1NC(=O)CN1CCCN(S(=O)(=O)c2ccc(Br)cc2)CC1 -26.8%, COC(=O)c1cc(OC)c(OC)c(OC)c1NC(=O)c1cc(=O)n(C)c(=O)n1C -11%, CCOc1ccc(NC(=O)CSc2ccc3ccccc3n2)cc1 8.3%, COCCCNC(=O)CN1C(=O)COc2ccc(S(=O)(=O)N3CCOCC3)cc21 -16%, O=C(O)Cc1cccc2ccccc12, O=C(CCNS(=O)(=O)c1cccc2nonc12)Nc1ccc(F)cc1 -4.22%, COC(=O)c1cccc(Nc2c(-c3ccc(O)cc3)nc3nc[nH]n23)c1 -3.22%, COc1ccc(N2CCN(C(=O)c3cn(C4CCCCC4)c(=O)c4c3c3ccccc3n4C)CC2)cc1 -24.1%, O=C(Cn1ncc2c3ccccc3n(Cc3ccc(F)cc3)c2c1=O)NC1CCCCCC1 -12.6%, CCOC(=O)c1cc(-c2ccccc2)n(-c2cccc(C(=O)NC(C)CC)c2)c1C (centres undefined) -26.9%, Cc1ccc(N(C)S(=O)(=O)c2ccc(-c3cnc(C4CC4)o3)cc2)cc1 -36.1%, COc1ccc(Nc2nc(-c3ccccc3)c3cc(Br)ccc3n2)cc1 -10.8%, CCn1c(CN2CCCCC2)nc2cc(NC(=O)COc3cc(C)ccc3C(C)C)ccc21 -21.8%, CC(C)Oc1ccc(CNC(=O)c2ccc3c(c2)N(Cc2ccc(F)cc2)CCS3)cc1 -20.9%, Clc1ccccc1CNc1nc2ccccc2c2nc(-c3ccccc3)nn12 -22.4%, O=C(C1CCCCC1)N(Cc1cccnc1)c1nc2c(F)cccc2s1 -33.3%, Cc1ccc(C)c(NC(=O)N2CCN(c3nnc(C)c4c(C)n(-c5ccccc5)nc34)CC2)c1 -4.16%, COc1cc2c(cc1OC)C(COc1ccccc1OC)N(C(=O)c1ccc(S(=O)(=O)N3CCCC3)cc1)CC2 (centres undefined) -19%, Cc1cccc(OCC(=O)Nc2c(C(=O)N3CCN(c4ccccc4)CC3)oc3ccccc23)c1 -10.9%, COc1ccc(N2CCN(c3oc(-c4ccccc4C)nc3S(=O)(=O)c3ccccc3)CC2)cc1 -11.7%, COc1cc(NC(=O)Cn2nc(Cc3cccnc3)c3ccccc3c2=O)cc(OC)c1OC -4.45%, CCc1nc2ccccc2n1CCCCOc1ccc(Cl)cc1 -52%, CC(NCCc1ccc(O)cc1)C(O)c1ccc(O)cc1 (centres undefined) -10%, CCOc1ccccc1CNC(=O)CCCn1nc(C)c2sc3ccccc3c2c1=O 1.76%, Cc1cccc(CSc2nc3ccncc3n2Cc2ccc(C(=O)O)cc2)c1 4.31%, Cc1ccc(OCc2ccc(-c3nc(C#N)c(N4CCN(c5cccc(Cl)c5)CC4)o3)o2)cc1 -15.2%, Cc1nc2c([nH]1)c(=O)n(C)c(=O)n2Cc1ccco1 -8.92%, CC1=C(C(=O)Nc2cccc(Cl)c2)C2(CCCCCC2)OC1=O -20.2%, COc1ccccc1NC(=O)Cn1c(=O)n(CCc2ccccc2)c(=O)c2sc3ccccc3c21 -3.98%, COc1cc(NC(=O)Cn2nc(C(F)(F)F)c3c2CCCC3)cc(OC)c1OC -34.4%, Cc1cccc(C)c1NC(=O)N1CCC(C(N)=O)(N2CCCCC2)CC1 1.35%, CCOC(=O)c1ccc(NC(=O)c2c(NCc3cccc(OC)c3)sc3c2CCC3)cc1 -0.0862%, CC(C)c1ccc(C(=O)Nc2ccc(-c3nc4ccccc4s3)c(Cl)c2)cc1 -16.6%, COc1cccc(-n2c(-c3ccco3)nc3c(cnn3-c3ccccc3C)c2=O)c1 -27.4%, Cn1cc(S(=O)(=O)N2CCCCCC2)cc1C(=O)Nc1ccccc1F -21.6%, COc1ccc(-c2nc(Cn3c(SCc4cccc(F)c4)nc4cccnc43)c(C)o2)cc1 -34.1%, COc1cccc(C(=O)NCC(c2ccc(N(C)C)cc2)N2CCc3ccccc32)c1OC (centres undefined) -6.58%, COc1ccc2oc(-c3ccc(C)c(NC(=O)c4sc5ccccc5c4Cl)c3)nc2c1 -12.3%, CCN(CC)C(=O)c1sc2c(c1C)c(=O)n(-c1ccc(OC)cc1OC)c(=O)n2Cc1cc(C)ccc1C -30.5%, COc1cccc(-c2nn(C)c3sc(C(=O)NCc4ccc(C)cc4)cc23)c1 7.15%, CC(=O)N1c2ccc(S(=O)(=O)NCc3ccc(Cl)cc3)cc2CC1C (centres undefined) -36.7%, CC(=O)Nc1ccccc1OCc1cc(=O)n2c(C)csc2n1 -4.09%, CCOC(=O)c1cc(S(=O)(=O)NCc2ccc(F)cc2)[nH]n1 -12.2%, Cc1ccc(-c2nc(C)c(CCNC(=O)C(=O)Nc3ccc(C)c(Cl)c3)s2)cc1 9.35%, CCC1(C)CC(=O)NC1=O (centres undefined), CCN(CCCNC(=O)CSc1cc(=O)n(C)c2cc(Cl)ccc12)c1ccccc1 -22%, Cc1cc(=O)n2nc(N3CCC(C(=O)NCc4ccccc4F)CC3)sc2n1 -5.58%, CN1CCN(CCNC(=O)c2cnn(-c3cccc(Cl)c3)c2C2CCN(C(=O)OC(C)(C)C)CC2)CC1 -17.8%, COc1ccc(CN(C)c2ccc(-c3nc(C)no3)cc2[N+](=O)[O-])cc1 -36.4%, Cc1ccc(NC(=O)CSc2ncc3c(n2)-c2ccccc2N(C)S3(=O)=O)c(Cl)c1 -38.7%, COc1ccc2nc(SCc3ncc(C)c(OC)c3C)[nH]c2c1 9.27%, CCC(CC)C(=O)Nc1cccc(-c2nc3ncccn3c2C)c1 9.3%, CCc1ccc(CNC(=O)Cn2nc(C)c3c(C)n(-c4ccc(C)cc4)nc3c2=O)cc1 -9.43%, CCC1CN(C(=O)N2CCC(C(=O)NCCCc3ccccc3)CC2)c2ccccc2O1 (centres undefined) -36.1%, CN(C)c1ccc(CNC(=O)Cn2c(=O)oc3cc(S(=O)(=O)NCc4ccccc4)ccc32)cc1 -22.4%, CCCC12CN3CC(C)(CN(C1)C3c1cn(CC)c3ccccc13)C2=O (centres undefined) 4.65%, CCN1CCN(c2cc(C)c3cc(NC(=O)c4cc(Br)ccc4Cl)ccc3n2)CC1 -18.7%, COCCCNC(=O)CSc1nc(-c2ccc(OC)cc2)[nH]c1-c1ccc(OC)cc1 -15.8%, COc1ccc2oc(=O)cc(CN3CCN(c4ccccc4OC)CC3)c2c1 -17.2%, CCOC(=O)c1c(C)[nH]c(CCC(=O)Nc2ccccc2OCC)c1C -10.3%, O=C(NCc1ccccc1Cl)c1ccc2nc(Cc3ccccc3)oc2c1 -11.8%, CCC(=O)N1c2ccccc2CC1C(=O)NCCN1CCN(c2cccc(Cl)c2)CC1 (centres undefined) -20.2%, CC(=O)N1CCCc2cc(S(=O)(=O)N3CCC(C(=O)NCc4ccccc4Cl)CC3)ccc21 -16.1%
